# Experimental data as given in the BET-seq Pho4 binding data (Le et al. 2018).
# The list shows a part of the results. Values were computed here from the reads of four pooled replicates and scatter widely.
# Target: T1, Pho4 (S. cerevisiae) (UniProt P07270)
# T1 sequence: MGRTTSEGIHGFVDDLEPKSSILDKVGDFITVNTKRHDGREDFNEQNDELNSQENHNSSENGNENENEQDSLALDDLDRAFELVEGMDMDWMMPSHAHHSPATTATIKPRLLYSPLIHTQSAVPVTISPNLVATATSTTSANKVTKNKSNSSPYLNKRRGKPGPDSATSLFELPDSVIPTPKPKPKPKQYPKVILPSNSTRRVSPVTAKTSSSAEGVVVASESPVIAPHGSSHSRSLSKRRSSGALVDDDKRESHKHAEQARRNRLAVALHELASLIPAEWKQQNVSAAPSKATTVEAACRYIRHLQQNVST
# Assay: relative binding free energy (BET-seq); higher = weaker binding
# Settings: reference: library average
row,Sequence,relative binding free energy
1,GGTGCCACGTGTTCGG,-0.11 kcal/mol
2,TACTTCACGTGGAGTT,0.37 kcal/mol
3,TGAGACACGTGATGTA,0.22 kcal/mol
4,TTGGGCACGTGCGATA,-0.07 kcal/mol
5,TTTGCCACGTGAGATG,0.16 kcal/mol
6,TTTGGCACGTGCCAGT,-0.23 kcal/mol
7,TGGCGCACGTGTGGTA,0 kcal/mol
8,AGCGACACGTGTGTTT,0.04 kcal/mol
9,CGAATCACGTGAGGGT,0.29 kcal/mol
10,TGGATCACGTGTGCTT,0.22 kcal/mol
11,TTCATCACGTGTAATG,0.19 kcal/mol
12,TTTTTCACGTGAATTA,0.35 kcal/mol
13,GGTGGCACGTGAAACG,0.23 kcal/mol
14,AGGTGCACGTGTTGGC,0.12 kcal/mol
15,AGTTTCACGTGCATTG,0.17 kcal/mol
16,TGTAACACGTGGAATA,0.09 kcal/mol
17,TGTGTCACGTGTCGCT,0 kcal/mol
18,TTTCCCACGTGTGGTT,-0.01 kcal/mol
19,TCGTCCACGTGTTAGG,0.05 kcal/mol
20,GTTACCACGTGGGTTG,-0.18 kcal/mol
21,AGGAACACGTGATCGG,0.23 kcal/mol
22,TAATGCACGTGATGAA,0.09 kcal/mol
23,GGTATCACGTGTTTAC,0.24 kcal/mol
24,GTTGGCACGTGCCTGG,-0.05 kcal/mol
25,ATGCGCACGTGATATT,0.04 kcal/mol

row,Sequence,relative binding free energy
1,GTTTACACGTGTTGCC,0.32 kcal/mol
2,TGAATCACGTGATTGT,0.31 kcal/mol
3,AGTTTCACGTGGACGT,0.32 kcal/mol
4,TTAGGCACGTGCGTTT,-0.11 kcal/mol
5,TCTGGCACGTGGAATG,0.03 kcal/mol
6,GAGGTCACGTGTATTG,0.26 kcal/mol
7,TTCTTCACGTGCGGAT,0.29 kcal/mol
8,TATATCACGTGGTCAT,0.13 kcal/mol
9,GAACGCACGTGTGTTG,-0.08 kcal/mol
10,TGAGCCACGTGGTGTT,-0.21 kcal/mol
11,TTGATCACGTGCGTTT,0.18 kcal/mol
12,GCTAGCACGTGTTGTG,-0.14 kcal/mol
13,TCGTGCACGTGGGCGA,-0.15 kcal/mol
14,TAGGGCACGTGTCTAG,-0.09 kcal/mol
15,TTAATCACGTGGCAGT,0.02 kcal/mol
16,AGTTCCACGTGATGGG,0.16 kcal/mol
17,GATAGCACGTGGTGAT,-0.02 kcal/mol
18,GGCTTCACGTGTTAAT,0.43 kcal/mol
19,GTGGGCACGTGCAACG,-0.02 kcal/mol
20,TAGTACACGTGTCTGT,0.07 kcal/mol
21,TTAGGCACGTGAAGTG,0.09 kcal/mol
22,GTAGTCACGTGAGAGA,0.22 kcal/mol
23,ATTGGCACGTGTTAGT,-0.13 kcal/mol
24,AGCGGCACGTGTATTG,-0.07 kcal/mol
25,ACTTGCACGTGCTGGG,-0.13 kcal/mol

row,Sequence,relative binding free energy
1,TACGGCACGTGGTCTG,-0.11 kcal/mol
2,CATCGCACGTGGGTGG,-0.28 kcal/mol
3,TGGGACACGTGGTAGG,-0.02 kcal/mol
4,TTATGCACGTGATAGT,-0.03 kcal/mol
5,TCAGGCACGTGGGGGT,-0.11 kcal/mol
6,TTGAACACGTGCTATT,0.09 kcal/mol
7,TGATGCACGTGGTAGG,-0.1 kcal/mol
8,TATTTCACGTGTGTCA,0.17 kcal/mol
9,TGGGACACGTGCTAGG,-0.01 kcal/mol
10,GATTGCACGTGTTGGT,0.06 kcal/mol
11,TGCGTCACGTGGGTTC,-0.08 kcal/mol
12,TGCGTCACGTGCCGGG,0.06 kcal/mol
13,TGTAGCACGTGGGATG,-0.12 kcal/mol
14,AGAGGCACGTGGAAGT,-0.01 kcal/mol
15,TTTCTCACGTGTCGTG,0.25 kcal/mol
16,AGGTACACGTGTTGGG,0.11 kcal/mol
17,GTTCTCACGTGTTCGG,0.29 kcal/mol
18,CGCTTCACGTGGAGGT,0.22 kcal/mol
19,TGGCTCACGTGGCTGG,0.12 kcal/mol
20,CTCGTCACGTGTTTTG,0.09 kcal/mol
21,GGATGCACGTGTAGAT,0.21 kcal/mol
22,TGAATCACGTGAATTT,0.33 kcal/mol
23,GGAAGCACGTGGTAGG,-0.23 kcal/mol
